Assay results as given in PubChem BioAssay AID463173 (ICCB-Longwood Screening Facility, Harvard Medical School, 2010).
In all, about 52,000 compounds went through this assay and about 4,300 (8.3%) were called active. No stated cut-off is given here; in the data, active means survival mostly below about 52% (no sharp cut-off); inactive means mostly above about 56%. The list shows a part of the results.

These compounds were tested on DeltatarO mutant (assay: S. aureus survival, RN4220 and DeltatarO strains – OD600, teichoic acid synthesis inhibitors, primary screen (AID 463173)). Settings: S. aureus RN4220 wild type/DeltatarO growth, OD600, 18 h, hits give low values, screened at 18.75 µg/mL (by protocol).

Row | SMILES | survival
1 | COc1ccc(OC)c(CCNC(=O)C2CCN(c3ncnc4c3nc3n4CCCCC3)CC2)c1 | inactive: 80%
2 | COc1ccc(OC)c(NC(=O)CCc2c(C)nn(-c3ccc(N4CCCC4)nn3)c2C)c1 | inactive: 113%
3 | CCOc1ccccc1NC(=O)Cn1c(=O)n(CCCC(=O)NCCc2ccc(C)cc2)c(=O)c2ccccc21 | inactive: 89%
4 | CC(C)(C)OC(=O)N1CCC(c2c(C(=O)NCCCN3CCc4ccccc4C3)cnn2-c2ccccc2)CC1 | inactive: 66%
5 | Cc1ccc(N2CC(NC(=O)c3ccc(S(=O)(=O)N4CCCC4)cc3)CC2=O)cc1 (stereo not given) | inactive: 102%
6 | CC(C)c1ccc(NC(=O)c2ccc3c(c2)CCCN3S(C)(=O)=O)cc1 | inactive: 51%
7 | CCC(c1ccc(F)cc1)n1cc(C(=O)NCCc2ccco2)nn1 (stereo not given) | inactive: 95%
8 | Cc1ccc(-n2c(SCc3ccccc3F)nc3[nH]ncc3c2=O)cc1C | inactive: 89%
9 | Cc1cccc(NC(=O)Cn2nc(-c3ccc(Cl)cc3)c3ccccc3c2=O)c1 | inactive: 142%
10 | COc1ccccc1CNC(=O)c1cccn1-c1nnc(N2CCCC2)s1 | inactive: 92%
11 | O=C(CSc1ccc2nc(-c3ccccc3)cn2n1)Nc1ccccc1C(F)(F)F | inactive: 67%
12 | O=C(Nc1cccc(-c2nc3ncccc3o2)c1)c1ccc(-c2cccc(Cl)c2Cl)o1 | inactive: 79%
13 | Cc1cccc(NC(=O)C(=O)c2cc(C)n(-c3ccccc3)c2C)c1C | inactive: 80%
14 | O=S(=O)(c1cccc(S(=O)(=O)N2CCOCC2)c1)N1CCCCCC1 | inactive: 91%
15 | COc1ccc(C(=O)NCC(c2cccnc2)N2CCN(c3ccc(F)cc3)CC2)cc1 (stereo not given) | inactive: 82%
16 | O=C(NCC(c1ccc(Cl)cc1)N1CCCCC1)c1ccc(F)cc1 (stereo not given) | inactive: 62%
17 | Nc1nc(N)c(S(=O)(=O)c2ccccc2)c(Nc2ccc(Br)cc2)n1 | active: 44%
18 | COc1cccc(-c2cc(C(F)(F)F)nc(-n3nc(C)c(Br)c3C)n2)c1 | active: 41%
19 | CC(=O)Nc1nonc1NC(C)=O | inactive: 87%
20 | O=c1c2c3c(sc2nc2n1CCCCC2)C(O)CCC3 (stereo not given) | inactive: 59%
21 | CNC(=O)c1ccc(Nc2nnc(-c3ccc(C)c(S(=O)(=O)NC(C)(C)C)c3)c3ccccc23)cc1 | inactive: 94%
22 | CCc1ccc(-n2c(=O)c3cccnc3n2CC(=O)NCc2ccc(F)cc2)cc1 | inactive: 94%
23 | CCOC(=O)N1CCc2c(sc3c2c(=O)n(Cc2ccccc2)c(=O)n3CC(=O)Nc2c(C)cccc2C)C1 | inactive: 81%
24 | CCOCN(C(=O)Cn1c(C(C)O)nc2ccccc21)c1c(C)cccc1CC (stereo not given) | inactive: 83%
25 | O=C(NCc1cccc(F)c1)c1ccc(CS(=O)c2ccccc2Cl)o1 (stereo not given) | inactive: 68%
26 | Cn1c(=O)c(=O)n(C)c2cc(S(=O)(=O)N3CCN(c4ccccc4F)CC3)ccc21 | inactive: 83%
27 | O=C(Nc1cccc(C(F)(F)F)c1)c1noc2c1CCc1ccccc1-2 | inactive: 55%
28 | CC(=O)c1cc(-c2ccccc2)n(CC(=O)NC2CCCCCC2)c1C | inactive: 113%

Row | SMILES | survival
29 | CCc1nc(-c2cc(S(=O)(=O)N3CCN(c4ccc(F)cc4)CC3)ccc2OC)no1 | inactive: 49%
30 | COc1ccc(N2CCN(C(=O)CSCc3nc(-c4ccccc4Cl)oc3C)CC2)cc1 | inactive: 83%
31 | CN(C1CCCCC1)S(=O)(=O)c1ccc(C(=O)Nc2sc3c(c2C(N)=O)CC(C)(C)NC3(C)C)cc1 | inactive: 84%
32 | Cc1cc(O)c(C(c2cccc(F)c2)N2CCC(C)CC2)c(=O)n1Cc1ccco1 (stereo not given) | inactive: 82%
33 | O=C(Cn1c(=O)n(Cc2cccs2)c(=O)c2cccnc21)Nc1ccccc1F | inactive: 73%
34 | O=C(NCCc1ccc(Cl)cc1)c1cccn1-c1nnc(N2CCCCC2)s1 | inactive: 98%
35 | Cc1cccc(NC(=O)CSc2nc3c(c(=O)[nH]2)CN(Cc2ccc4c(c2)OCO4)CC3)c1C | inactive: 78%
36 | O=C(Nc1nc2n(n1)C(c1ccc(F)cc1)C=C(c1ccc(Cl)cc1)N2)c1ccco1 (stereo not given) | active: 16%
37 | CCOC(=O)c1ccc(N2C(=O)c3n[nH]c(-c4cccs4)c3C2c2ccc(O)c(OC)c2)cc1 (stereo not given) | inactive: 72%
38 | CCN(C(=O)CCS(=O)(=O)c1cccc2nsnc12)c1cccc(C)c1 | inactive: 74%
39 | CCN(C(=O)c1cc2c(s1)-c1c(C)cccc1OC2)c1cc(C)ccc1C | active: -1%
40 | O=C(NCC12CC3CC(CC(C3)C1)C2)c1cc2nc(-c3ccc(Cl)cc3)cc(C(F)(F)F)n2n1 | active: 31%
41 | COc1ccc(CCNC(=O)Cc2c(C)c3cc(OC)c(OC)cc3oc2=O)cc1 | inactive: 50%
42 | CCN(CC)CC(=O)c1c[nH]c2ccccc12 | inactive: 105%
43 | Cc1cccc(C)c1OCC(=O)Nc1nonc1-c1ccc(Br)cc1 | active: 41%
44 | Cc1ccc(C(=O)Nc2ccc(-n3c(C)nc4ccccc4c3=O)cc2)cc1[N+](=O)[O-] | inactive: 117%
45 | COc1ccc(NC(=O)C2CCN(C(=O)c3sc4nc[nH]c(=O)c4c3C)CC2)c(OC)c1 | inactive: 91%
46 | CC(=O)OCc1cnc(C)c2oc(=O)c(C(=O)Nc3ccc(F)cc3C)cc12 | inactive: 122%
47 | Cc1cccc(N2CCN(c3nc4ccccc4c4nc(-c5ccccc5)nn34)CC2)c1C | inactive: 92%
48 | CCc1ccccc1N1CC(c2nnc(NC(=O)c3ccco3)s2)CC1=O (stereo not given) | inactive: 85%
49 | CCN(CC)S(=O)(=O)c1ccc2c(c1)N(CC(=O)N1CCN(c3cc(Cl)ccc3C)CC1)C(=O)CO2 | inactive: 71%
50 | CCOc1ccc(CNC(=O)C2CCN(C3=NS(=O)(=O)C(c4ccc(C)cc4)=C3CC)CC2)cc1 | inactive: 72%
51 | COc1cc(NC(=O)c2cc(-c3ccccc3O)no2)cc(OC)c1OC | inactive: 67%
52 | CC(=O)Nc1nonc1-c1nnc(SCC(=O)Nc2ccccc2Cl)n1C | inactive: 50%
53 | Clc1cccc(-c2nnc(CN3CCN(c4ccccn4)CC3)o2)c1 | inactive: 82%
54 | COC(=O)c1c(SCC(=O)Nc2cccc(C(F)(F)F)c2)[nH]c2ccccc2c1=O | inactive: 82%
55 | COc1ccc(NC(=O)C(CC(C)C)NC(=O)C2CCCCC2)c(OC)c1 (stereo not given) | inactive: 71%
